In paper PMC12040169 (PLOS Biology, 2025):
The other results are listed elsewhere or left out.

Test system: T1, C. trachomatis L2/434/Bu expressing GFP (CTL2-GFP)
T1 construct: L2/434/Bu GFP intracellular growth in HeLa cells
Design: species or system HeLa; C. trachomatis total inclusion area by high-content imaging, normalised to DMSO
Details: total inclusion area; 28.5 h, 10 µM; inhibitor
In short: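 After bulk GFP and resorufin fluorescence reads, cells were fixed, stained with Hoechst and imaged by high-content microscopy. Inclusion area and number (GFP) stood in for chlamydial growth, nuclei count (Hoechst) for host cell viability. MICs were derived as for the bulk readout.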

SMILES | % of control remaining
O=C1CC(NCc2ccc3c(c2)OCO3)C(=O)N1c1ccc(OC(F)(F)Cl)cc1 (stereo not shown) [CBK074357] | 86.1752
Cc1nnnn1-c1ccc(CC(=O)N2CCc3sccc3C2c2ccccc2)cc1 (stereo not shown) [CBK285567] | 82.235
COCCOCN1C(=O)CC2(C1=O)C(=O)N(CC(=O)O)c1ccc(F)cc12 (stereo not shown) [CBK076163] | 84.3552
COC(=O)c1cc(C(=O)Nc2ccc(OCCC(N)=O)cc2)c[nH]1 [CBK305486] | 24.1021
NS(=O)(=O)c1ccc(CCNC(=O)c2ccccc2Oc2ccccc2)cc1 [CBK264394] | 113.235
Cc1ccc(C(=O)NCc2cccnc2)c(N2CCN(C(=O)c3ccco3)CC2)n1 [CBK076444] | 98.2068
CC1=CC(c2ccccc2)N2N=C(NC(=O)CCCC(=O)O)NC2=N1 (stereo not shown) [CBK287037] | 101.844
CC(C)NC(=O)C1CC2CCC1(C)CC21NC(=O)c2ccccc2O1 (stereo not shown) [CBK285261] | 84.8266
Cc1cccnc1C(NC(=O)C1CCN(S(=O)(=O)c2cccs2)CC1)c1cccs1 (stereo not shown) [CBK060147] | 91.8769
Cc1ccc(SC(C)C(=O)Nc2cc(Cl)ccc2O)cc1 (stereo not shown) [CBK268610] | 73.0501
O=C(c1ccccn1)C1CCCN(c2nccc(CCC(F)(F)F)n2)C1 (stereo not shown) [CBK306775] | 55.9002
CCCNCCc1ccc2c(c1)C(=O)N(Cc1ccc(OC)cc1)C2=O [CBK011826C] | 109.273
COc1cccc(NC(=O)c2cc3ccccc3o/c2=N\O)c1 [CBK288387] | 64.0948
CCOC(=O)c1cnc(C2CC2)nc1NCc1cccc(C)c1C [CBK114707] | 101.226
O=c1oc(-c2cccc(F)c2)nc2cc(Cc3ccc4c(=O)oc(-c5cccc(F)c5)nc4c3)ccc12 [CBK262775] | 89.3856
Cc1nc2ccc(C(=O)N(C)CCN(C)C)cn2c1N(C)CC1CCCCC1 [CBK145894] | 98.7176
Cc1cn(C(C)C(=O)N(C)C)nc1C1CCCCC1 (stereo not shown) [CBK016092] | 59.7214
CC(C)c1ccc(N2C(=O)[C@@H]3C[C@@H](NC(=O)c4cccn4C)CCN3C2=O)cc1 [CBK289547] | 117.461
Cc1nnc(N/N=C/c2cn(Cc3c(F)cccc3Cl)c3ccccc23)n1N [CBK278277C] | 106.561
Cc1ccc(S(=O)(=O)N2CCN(CC(O)COc3ccc4ccccc4c3)CC2)cc1 (stereo not shown) [CBK266239] | 107.274
O=C(c1n[nH]nc1-c1ccccc1)N1CCCC(C(F)(F)F)C1 (stereo not shown) [CBK164228] | 70.3816
Cn1ccnc1CN1CCNC(=O)C1c1ccccc1C(F)(F)F (stereo not shown) [CBK306415] | 75.7883
CCCNc1cncc(-c2cccc(F)c2)n1 [CBK065441] | 67.4554
CC(=O)N1CCN(c2ccc(NC(=O)CSc3ccc(C)cc3)cc2)CC1 [CBK269854] | 118.511
O=C(CCc1ccncc1)N1CCOC(c2ccc(F)cc2F)C1 (stereo not shown) [CBK304692] | 66.0475
O=C(Cn1c(C2CCCNC2)cc2cccnc21)N1CCCC1 (stereo not shown) [CBK285060] | 87.3465
COC(=O)c1cccc(COC(=O)c2ccc3nc(C)c(C)nc3c2)c1 [CBK269641] | 77.7231

SMILES | % of control remaining
CC(C)(C)C(=O)N1CCC(c2nnc(-c3ccsc3)o2)CC1 [CBK283378] | 99.7658
CCN1C(=O)COC[C@@H]1[C@H](O)c1ccc(NC(=O)COc2ccccc2)cc1 [CBK289685] | 115.204
CN(C)CCSc1nc2cc(Cl)ccc2o1 [CBK266337C] | 102.702
COc1ccc(N2CCN(c3cncc(-c4cccc(N)c4)n3)CC2)cc1OC [CBK066126] | 137.616
COc1ccccc1CNC(=O)c1cnc2sc(C)cn2c1=O [CBK287708] | 85.0398
COc1cc(C(c2nnnn2C2CCCCC2)N2CCN(C)CC2)cc(OC)c1OC (stereo not shown) [CBK142338C] | 89.6075
COc1cc(/C=N/N=C(/Nc2ccc(C)cc2)c2nc3ccccc3s2)ccc1O [CBK265029] | 101.187
O=C(O)C1(c2ccc(Br)cc2)CCCC1 [CBK287134] | 84.0391
O=C(O)c1ccn(-c2ccc(NS(=O)(=O)c3ccc(N4CCCC4=O)cc3)cc2)n1 [CBK298327] | 83.4471
Cc1nc(-c2ccc(CNC(=O)C(Cc3ccccc3)N3CCCC3)cc2)ccc1C(N)=O (stereo not shown) [CBK286017] | 101.299
CCc1nc2c(OCC3CCCCC3)cccn2c1N(C=O)Cc1ccc(OC)cc1 [CBK147811] | 80.0879
CC(=O)N1CCc2cc(C(=O)CN3CCOCC3)ccc21 [CBK291105] | 96.979
Cc1cccnc1C1(O)CCN(C(=O)NCc2ccccc2)CC1 [CBK282293] | 93.6658
Cc1c(C(=O)O)sc(S(=O)(=O)N2CCN(C(=O)Cc3ccsc3)CC2)c1C(=O)O [CBK297134] | 87.5406
CCN(CC(C)C#N)C(=O)c1ccc2ccccc2n1 (stereo not shown) [CBK304801] | 61.9716
CC1CC(C)CN(C(=O)CN2C3CCC2CC(O)(c2ccco2)C3)C1 (stereo not shown) [CBK284032] | 114.935
O=C(N[C@H]1CCN2C(=O)N(c3cccc4nsnc34)C(=O)[C@@H]2C1)c1ccnc(Cl)c1 [CBK289545] | 105.436
O=C1NCCc2c1[nH]c1ccc(Cl)cc21 [CBK015755] | 75.4804
CS(=O)(=O)N1CCCc2cc(C(=O)O)ccc21 [CBK287072] | 112.72
CC(N)C(=O)NC1CCN(c2nc3c(cc2F)c(=O)c(C(=O)O)cn3C23CC(C2)C3)C1 (stereo not shown) [CBK016632] | 0.3463
O=C(OCCc1cccnc1)N1CCSCC1 [CBK200160] | 112.627
O=C(Nc1ccc2ccccc2c1)c1ccccc1N(Cc1ccccc1)S(=O)(=O)c1ccccc1 [CBK263751] | 94.9006
Cc1ccc(C(C)C)c(OCC(=O)n2nc(C)cc2C)c1 [CBK058196] | 101.62
Cc1cc(C)n(CC(=O)Nc2ccccc2-n2ccnc2)n1 [CBK283079] | 74.9959
COc1cccc(NC(=O)NCc2ccc(F)cc2)c1 [CBK115590] | 98.5945
O=C(COc1ccc(Cl)cc1Cl)NC(Cc1ccccc1)C(=O)O (stereo not shown) [CBK261061] | 100.469
C(=C\c1ccccc1)/CNCCCN1CCOCC1 [CBK278195C] | 54.72

SMILES | % of control remaining
O=S(=O)(Nc1cccc(-c2cnco2)c1)c1cccc2cccnc12 [CBK067104] | 98.6119
Cc1ccc(Cl)cc1NC(=O)OCCN(C)C [CBK016906] | 111.641
CCCCNS(=O)(=O)c1ccccc1[N+](=O)[O-] [CBK261456] | 96.265
COc1cncc(C(NC(=O)c2ccc3[nH]nnc3c2)[C@H]2C[C@@H](O)C2)c1 (stereo partly shown) [CBK307049] | 80.9228
CC1(C)[N+]([O-])=CC(c2ccc(-c3ccccc3)cc2)=[N+]([O-])C1(C)C [CBK267825] | 88.8196
Cc1csc2c(C3CCCN(C(=O)c4cnn(C)c4)C3)nc(C)n12 (stereo not shown) [CBK284595] | 81.2728
O=C1N[C@]2(CCc3ccccc31)CN(Cc1ccccc1)C[C@H]2CO [CBK284795] | 77.943
CCc1nc(N)nc(N2CCCC3(CN(C)C(=O)O3)C2)c1C (stereo not shown) [CBK306914] | 47.7589
O=C(NCc1cccnc1)c1ccc2c(c1)C(=O)N(Cc1ccco1)C2=O [CBK269675] | 53.8882
Nc1cc(S(=O)(=O)O)c2cccnc2c1O [CBK278176] | 72.4115
COc1cc(/C=C2/C(=O)N(c3nnn[nH]3)N=C2C)ccc1OC(=O)c1cccs1 [CBK266641] | 89.707
CN(C)S(=O)(=O)N1CC2(CCN(C(=O)[C@@H]3CN(C(=O)C(C)(C)NC(=O)OC(C)(C)C)C[C@H]3c3cc4ccccc4o3)CC2)c2ccccc21 [CBK014088] | 82.5617
CC(C)Oc1ccc(-c2cc(C(=O)NCc3ccncc3)c3ccccc3n2)cc1 [CBK293957] | 115.916
CCOC(=O)CN1CCN(c2cc(C#N)ccn2)CC1 [CBK306006] | 70.5042
Cc1nc(N)sc1-c1nnc(SCC(=O)Nc2ccccc2C(F)(F)F)n1C [CBK267359] | 105.136
COc1ccccc1N(CC(O)CN1C(=O)NC(C)(C)C1=O)S(=O)(=O)c1ccc(C)cc1 (stereo not shown) [CBK263581] | 102.268
CCN(Cc1ccncc1)C(=O)NCC1CCCCC1 [CBK155132] | 109.863
COc1ccc(OCCNC(=O)c2ccc(-c3cccc(N(C)C)c3)nc2N(C)C(C)=O)cc1 [CBK076587] | 75.3136
COc1cc(CCN2CCCCC2)c(C(C)n2cncn2)cc1OC (stereo not shown) [CBK023837G] | 65.4125
CC(=O)Oc1cccc(CN2CCCN(S(=O)(=O)c3ccc(-c4ccccc4)cc3)CC2)c1 [CBK063113] | 102.021
O=C(c1cscn1)N1CCC2(CCCNC2)C1 (stereo not shown) [CBK153230C] | 100.736
CC(=O)c1c(C(=O)O)[nH]c(C(=O)O)c1C [CBK263934] | 96.4521
NCCCCCCNC(=O)c1c(O)c2ccccc2oc1=O [CBK261071] | 88.9338
Cc1cc2c(SCc3cc(O)[nH]n3)ncnc2s1 [CBK269799] | 95.2381
CCc1nnc(NS(=O)(=O)c2ccc(NC(=O)c3ccccc3[N+](=O)[O-])cc2)s1 [CBK045494] | 98.8137
